In all, about 350,000 compounds went through this assay and about 9,900 (2.8%) were called active. Inconclusive means that the source gave no clear call. Such entries were picked first, then a sample of the others. Calls come from the whole dose curve; as a rule, active = well fitted activation curve with a large enough effect; inconclusive = small, poorly fitted or top-dose-only effect; inactive = no such curve, though single readings can be large or run the other way. No potency is given beside an inconclusive call; the fits are too rough.
Experiment: A quantitative high throughput screen for small molecules that induce DNA re-replication in MCF 10a normal breast cells. For activity, positive = re-replication: % of control where 0% means no effect. Note: nearly all actives have a fitted effect of over 50% in size.
Details: MCF 10A DNA re-replication, Hoechst nuclear intensity, 48 h; activity, positive = re-replication: at 46.1 µM (top of the series)
Potency is the fitted concentration of half-maximal effect; tags give direction and shape of the fitted curve.

Row | Structure (SMILES) | Potency | activity, positive = re-replication
1 | Cc1nn(C)c(C)c1NS(=O)(=O)c1ccc(N2CCCC2=O)cc1 | inconclusive [activator, single point] | 
2 | CCOc1c(OC)ccc2c3c(c(=O)oc12)CCCC3 |  | inactive: 14.6%
3 | CC(C)CCNC(=O)NC(=O)CSc1nnc(COc2ccccc2Cl)o1 | inconclusive [activator, single point] | 
4 | CC(C(=O)NCC(=O)Nc1ccc(F)c(F)c1F)N1CCN(c2ccc(O)cc2)CC1 (configuration not stated) |  | inactive: 8.54%
5 | Nc1cccc(-c2cn(-c3cc4cc(C#CC5(O)CCCCC5)ccc4oc3=O)nn2)c1 | inconclusive [activator, full curve] | 
6 | Cc1ccnc(NC(=O)C2CCN(S(=O)(=O)c3c(C)c(C)cc(C)c3C)CC2)c1 | inconclusive [activator, partial curve, poor fit] | 
7 | O=C(O)CC/C(=N/NC(=O)c1cn(-c2ccccc2)nc1-c1ccccc1)C(=O)O | inconclusive [activator, single point] | 
8 | CCc1nn(CC(=O)N2CCCCCC2)c(=O)c2cc3ccccc3n12 |  | inactive: 3.88%
9 | CC(OC(=O)/C=C/c1ccco1)C(=O)Nc1cccc([N+](=O)[O-])c1 (configuration not stated) |  | inactive: 5.75%
10 | O=C(c1ccc(N2CCCC2)c([N+](=O)[O-])c1)N1CCN(S(=O)(=O)c2ccccc2)CC1 |  | inactive: 3.86%
11 | Clc1ccc(C2=Nn3c(nnc3-c3n[nH]c4c3CCC4)SC2)cc1 | inconclusive [activator, full curve, poor fit] | 
12 | COc1cccc(-c2csc(N3CCN(Cc4ccccc4)CC3)n2)c1 | inconclusive [activator, partial curve, poor fit] | 
13 | COc1nc(-c2ccc(C)cc2)ccc1-c1noc(-c2ccco2)n1 | inconclusive [activator, partial curve] | 
14 | O=C(N/N=C/c1cc(Br)c(Br)o1)c1cccnc1 | inconclusive [activator, single point] | 
15 | COc1ccccc1NS(=O)(=O)c1ccc2oc(SC3CCOC3=O)nc2c1 (configuration not stated) | inconclusive [activator, single point] | 
16 | Cc1ccc(NC(=O)c2ccc(NCCc3ccccc3)c([N+](=O)[O-])c2)cc1F | active: 18.4 µM | 
17 | O=c1c2ccccc2sn1-c1ccc(F)cc1 | inconclusive [activator, single point] | 
18 | COc1ccc(NS(=O)(=O)c2cc(NC(=O)Cc3cccs3)ccc2C)cc1 | active: 16.4 µM | 
19 | NS(=O)(=O)c1ccc(N/N=C/c2cn(-c3ccccc3)nc2-c2cccs2)cc1 | active: 13 µM | 
20 | COc1cccc2sc(N(CCN(C)C)C(=O)/C=C/c3cccs3)nc12 | inconclusive [activator, single point] | 
21 | Cc1csc(NC(C)c2nc3cc(C(F)(F)F)ccc3n2CCOCCO)n1 (configuration not stated) | inconclusive [activator, full curve, poor fit] | 
22 | COC(=O)Cn1c(=O)c(C(=O)CCl)c(N)n(Cc2ccccc2)c1=O | active: 5.17 µM | 
23 | CCOC(=O)c1ccccc1NC(=O)c1ccc(Cl)c(S(=O)(=O)N2CCOCC2)c1 |  | inactive: 24.1%
24 | CCOc1ccc(CNC(=O)CCc2cn(C)c3ccccc23)cc1 | inconclusive [activator, partial curve, poor fit] | 

Row | Structure (SMILES) | Potency | activity, positive = re-replication
25 | CCC(C)(C)NC(=O)C(c1ccc(OC)cc1)N(C(=O)CCC(=O)Nc1cc(C)on1)c1ccc2c(c1)OCCO2 (configuration not stated) |  | inactive: 1.54%
26 | CC1CCN(S(=O)(=O)c2ccc3c(c2)N(CC(=O)N(C)Cc2ccco2)C(=O)CO3)CC1 | inconclusive [activator, partial curve, poor fit] | 
27 | Cc1cc(-n2[nH]c(C)c(C)c2=O)nc(-c2ccccc2O)n1 | inconclusive [activator, single point] | 
28 | O=C1CC(c2ccc3c(c2)OCCO3)Oc2ccccc21 (configuration not stated) | inconclusive [activator, single point] | 
29 | COc1ccc(Nc2ccnc3ccccc23)cc1 |  | inactive: 18.2%
30 | CCCn1c(SCC(=O)N2CCCC2=O)nc2ccccc2c1=O | inconclusive [activator, partial curve, poor fit] | 
31 | CC1CCN(c2ccc(NC(=O)c3ccc([N+](=O)[O-])o3)cc2)CC1 | active: 3.26 µM | 
32 | CCOc1cccc(=O)c2c(C)n(Cc3ccco3)c(C)c12 |  | inactive: -1.42%
33 | CN(C)C1(CNC(=O)c2cccc(S(=O)(=O)NCc3ccccc3)c2)CCCCC1 |  | inactive: 9.16%
34 | CCN(CC)CCN(C(=O)c1ccc2c(c1)OCCO2)c1nc2cc(C)cc(C)c2s1 |  | inactive: 11.9%
35 | NNc1ccc(Cl)c(C(=O)O)c1 |  | inactive: 5.16%
36 | Cc1ccc(NC(=O)CSCC(=O)Nc2ccccc2N2CCCCC2)cc1 | inconclusive [activator, single point] | 
37 | COc1cc2cc(-c3ccc(OC)c(OC)c3C)nc(N)c2cc1OC | active: 1.64 µM | 
38 | Cc1ccc(-c2nnc(N3CCC(C)CC3)c3ccccc23)cc1C | inconclusive [activator, partial curve, poor fit] | 
39 | COc1cc(C(=O)N/N=C(\Cc2ncc[nH]2)c2ccccc2)cc(OC)c1OC | active: 18.4 µM | 
40 | O=C(NC(=S)NCc1ccccc1)C1CCCCC1 | inconclusive [activator, partial curve, poor fit] | 
41 | O=C(CN1CCN(c2ccccc2F)CC1)Nc1nnc(C(F)(F)F)s1 | inconclusive [activator, full curve, poor fit] | 
42 | Cc1ccc(-c2nn3c(C)nnc3s2)cc1NC(=O)c1ccc(-c2ccc(Cl)cc2Cl)o1 | active: 7.31 µM | 
43 | O=[N+]([O-])c1cc(Br)c(O)c(/C=N/Nc2nc3ccccc3s2)c1 | inconclusive [activator, full curve, poor fit] | 
44 | COc1ccccc1OCCCOc1cccc(/C=C2\SC(=O)NC2=O)c1 | inconclusive [activator, single point] | 
45 | O=C1CN(S(=O)(=O)c2cccc(Cl)c2Cl)c2ccccc2N1 |  | inactive: 13.5%
46 | CCCn1c(=S)[nH]c2cc(C(=O)N3CCc4ccccc43)ccc2c1=O | inconclusive [activator, partial curve, poor fit] | 
47 | CC1(C)CC(=O)C(C=NCCCO)=C(O)C1 | inconclusive [activator, full curve, poor fit] | 
48 | Cc1ccc(NC(=O)CSc2nc3c(c(=O)[nH]2)CCC3)c(C)c1 |  | inactive: -4.17%

Row | Structure (SMILES) | Potency | activity, positive = re-replication
49 | O=C(Nc1nccs1)c1ccc(Cl)c(S(=O)(=O)N2CCCCC2)c1 | inconclusive [activator, partial curve, poor fit] | 
50 | Nc1nc(N)c(C=Nc2ccc(Br)cc2)c(Nc2ccc(Br)cc2)n1 | inconclusive [activator, single point] | 
51 | COc1ccc(-c2noc(-c3ccccc3-c3ccccc3)n2)cc1 |  | inactive: 23.1%
52 | C#CCOCCOCCOCCNc1nc(N2CCN(C(=O)Cn3cc(CCO)nn3)CC2)nc(N2CCN(C(=O)[C@H](CCCCN)n3cc(CCCC)nn3)CC2)n1 |  | inactive: 26.4%
53 | COc1cc(SC#N)ccc1N=Cc1c(C)[nH]n(-c2ccc(C)cc2C)c1=O |  | inactive: 2.27%
54 | Cc1cccc(NC(=O)c2cc(NC(=O)C3CCCCC3C(=O)O)ccc2N2CCCCC2)c1 (configuration not stated) | active: 14.6 µM | 
55 | COC(=O)CCC1(C(N)=O)CCC(=O)c2ccccc21 (configuration not stated) |  | inactive: -0.985%
56 | CCN(CC)c1ccc(/C=N/NC(=O)OC(C)(C)C)cc1 | inconclusive [activator, single point] | 
57 | CN(Cc1ccncn1)C(=O)C1CCC(=O)N(Cc2cccc(C(F)(F)F)c2)C1 (configuration not stated) | inconclusive [activator, single point] | 
58 | COc1cccc(N(C(=O)c2cccs2)c2nc3ccccc3s2)c1 | inconclusive [activator, partial curve, poor fit] | 
59 | O=C(c1ccc(CS(=O)Cc2ccccc2Cl)o1)N1CCN(c2cccc(Cl)c2)CC1 (configuration not stated) | inconclusive [activator, single point] | 
60 | N#CCCCSc1nnc(CSc2nc3ccccc3s2)n1-c1ccccc1 | inconclusive [activator, full curve] | 
61 | COC(=O)c1[nH]c2ccc(C)cc2c1NC(=O)CN1CCc2cc(OC)c(OC)cc2C1 | inconclusive [activator, single point] | 
62 | CC(Sc1ccccc1)C(=O)Nc1ccccc1C(=O)N1CCOCC1 (configuration not stated) | inconclusive [activator, partial curve, poor fit] | 
63 | COc1ccc(NC(=O)CCCNC(=O)Cn2cnc3sc4c(c3c2=O)CCCC4)c(OC)c1 |  | inactive: 1.38%
64 | CCCCNC(=O)NC(C(=O)OC)C12CC3CC(CC(C3)C1)C2 (configuration not stated) |  | inactive: 0.8%
65 | CC(=O)c1ccc(OCCCN2CCCCC2)cc1 |  | inactive: 1.05%
66 | Cc1nc2ccccn2c1C(=O)NN=C1C2CC3CC(C2)CC1C3 | inconclusive [activator, partial curve, poor fit] | 
67 | CC1CCCC(C)N1C(=O)CNCc1ccc2c(c1)OCO2 (configuration not stated) |  | inactive: 1.25%
68 | CC(C)NC(=S)n1cc(C(=O)c2cc(Cl)cc(Cl)c2O)cn1 |  | inactive: 14.3%
69 | O=C(NCc1ccncc1)c1cnccn1 | inconclusive [activator, partial curve, poor fit] | 
70 | CN(C)/C=C/C(=O)c1ccccc1 |  | inactive: -1.3%
71 | COc1ccc2cc(-c3cc(C(=O)OCC(=O)NC4CCS(=O)(=O)C4)c4ccccc4n3)ccc2c1 (configuration not stated) | active: 7.31 µM | 
72 | O=C(NCc1nnnn1-c1ccc(F)cc1)c1ccc([N+](=O)[O-])o1 | inconclusive [activator, partial curve, poor fit] | 

— PubChem BioAssay AID624296 (National Center for Advancing Translational Sciences (NCATS), 2012)
